The supplement of paper PMC11417369
The list shows a part of the results.

system: PfAP2-HC AP2 domain (GST-tagged); experiment: gcPBM binding intensity (ln(normalized median fluorescence intensity)); higher = stronger DNA binding
How it was run: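 Using an Agilent 4 × 180k array, primer-extended double-stranded 36-bp intergenic genomic probes and negative controls were exposed for 1 h to GST-fused P. falciparum DNA-binding domains expressed in E. coli. Binding was carried out in 1× PBS with 1% milk, 0.2 mg/ml BSA, 0.5% salmon testes DNA and 0.03% Triton X-100, and protein was detected with Alexa488 anti-GST antibody and a 488 nm scan. Binding intensity is the highest Masliner-normalised natural-log median intensity across replicate spots of either probe orientation.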

Sequence	gcPBM binding intensity (ln)
TTATTATTAAGACACACACACAAAAAAAAAAAAAAA [CACACA_site6805]	10.1
TTTCCAATTAGTTTTGCATGTTGAAAAAATGTTGGA [TGCATGCA_site1035]	9.34
TATTTTAACTTCTCATGTACATATATTATGTCTATA [XGTACX_site249]	9.86
TATCATAAACTTCCTTACTATACTTTTCTTATTCAT [CACACA_negctrl_site1341]	9.75
CTTTGTAGTATATTAACACACAACTATTTATAATAT [CACACA_site3934]	9.82
TTGTGTTTGCGTAAATGTACGGAAAGACTTGAAGAC [XGTACX_site7235]	9.81
TTGTTAGAGTATATTGAAAGGATAACCTTTTTTTAT [XGTACX_negctrl_site122]	9.43
ACCATACATACATACACACACACACCCATATATATA [CACACA_site2917]	10.6
TTTCATGTTTTAAAGTGTACATAAATATATTATATG [XGTACX_site3367]	9.64
ACACTTAAATATTGTTGTACAAAATGATAAAATGTA [XGTACX_site4588]	9.88
GGAAACACAATATATACACACATATATATATATATA [CACACA_site235]	9.82
TTGATGTATACAATGTAGATTATTTAATATTTCAAT [GTGCAC_negctrl_site203]	9.48
TTATATAACCCTCATGCATGCTAAGAAAAAAAAAAC [TGCATGCA_site936]	9.55
ATTTATATTATAATATGTACACAAAAAAAATTAGGA [XGTACX_site565]	9.64
TAACATATCTTTAATACACACTTAAAAAAGTACTTA [CACACA_site4532]	9.41
AGCATTAAAAATGGAATGGAATTAAGCTATATATTA [CACACA_negctrl_site1571]	9.8
GAAACTTCAAGAAATGCACACAATAAAATAAATAAA [CACACA_site1549]	9.89
AGTATATATTATATATATATATATATATTATATATG [TGCATGCA_negctrl_site99]	9.47
ATAGAATATTATATTACACACAGAATAATAAAAAAT [CACACA_site86]	9.98
ACATCTCTTATATATTCACACACATATATATAATTA [CACACA_site8424]	10
TTAAAAAATTTTTAAGCACACACATAGATAATATAT [CACACA_site8440]	9.96
TTTTTTTTTTAATTCGCACACTGTCTTCATGCAATT [CACACA_site4882]	9.92

Sequence	gcPBM binding intensity (ln)
GCACATCTATATGAAACACACATGGAAACATCTCTT [CACACA_site7793]	9.81
TGTATATATTATAAAAGTACATAATATTCTTAGATA [XGTACX_site5623]	9.51
TTATCTTACATAAATTATAACAATAATATGTGTATA [XGTACX_negctrl_site379]	9.58
CATTTCGAAAAAAAATGTACTTATTATATTTATATA [XGTACX_site6752]	9.48
TTTTGTCTTATATGTTGTACAACGTAAACAAAAAAA [XGTACX_site4412]	9.32
AAAAGAATATATAATTGTACTTAAAATATAATTAAG [XGTACX_site4484]	9.64
TTTCGATTAAAAATTGTACAATATAAGGAGCACACA [GTGCAC_negctrl_site476]	9.64
AACCACAGACATATAACACACATATACAATATATAT [CACACA_site5142]	10.4
CTTTTTTTGACCTTAGTGCAAATAACTATATATTAT	9.71
TAAAAAAAAAAATGAACATGCAACAATTGTGATGAA [TGCATGCA_site332]	9.84
ACTGTAACAATCATGGGTACAAATAAAATAATATCT [XGTACX_site99]	9.7
ATGAAAATTATAAAGTGTACATATAGAAACATTTAC [XGTACX_site8047]	9.75
ATGGGACATATATATACACACATATATATATATATA [CACACA_site1202]	9.73
AAAAAAATTAAACATGAAGAATAAGGAACAAAAAAA [CACACA_negctrl_site1607]	9.87
TTTAATCATATGTTATATAATAAGCCCCCCCCCCAA [CACACA_negctrl_site486]	10.3
ATTTAAGTAGTACATACACACACATATACAAAAAGA [CACACA_site9317]	10.2
ATTAATTAAGGCACATGTACAAAATATTTTTTATAA [XGTACX_site1964]	9.68
TATACAATCTATATAACACACATATTTATATAAAAT [CACACA_site1797]	9.73
AATATAGTTCAATATACACACCCCTTTATTCATTTT [CACACA_site3625]	9.89
GTAACATACACATATACACACACACCGATATACATA [CACACA_site8278]	10.6
CAATATAAAAAACACACACACAAACATATATTTATA [CACACA_site3703]	10.5
TGTCGGCTTAGATTAGTGCACTGAAAAATGAAGTAT [GTGCAC_site9919]	9.61

Sequence	gcPBM binding intensity (ln)
TATTTATATAAAAATACACACATGAATGGATATATA [CACACA_site6335]	9.77
ACAAAACGAACATACGCATGTGTGTACATTAATATA [TGCATGCA_site922]	10.1
TTATTTACATCAAGTACATGCAGTAAAAAAAAAAAA [TGCATGCA_site351]	9.6
CACCAATTCCTATGCACACACATCTGCATATTATAT [CACACA_site5049]	10.8
ATATAATATATGTATACACACATATTATATAATATT [CACACA_site3699]	9.85
ATGAACAGTTCATGTTGTACAATCTCCATTTTTTAC [XGTACX_site3933]	9.68
TATACACATTTTTATACACACTTGTTTTATAAAACG [CACACA_site6480]	9.76
ATAATATGAAATATAACACACATATATAAAAACATT [CACACA_site866]	10
TATTTTTTTTTTGGGTGTACCTTTTATATATATTGT [XGTACX_site5036]	9.65
TATATATATATATATGCATGTACATATATTTGTTAT [TGCATGCA_site379]	10.4
TTTTTTTTTTTTTTTTGTACTTAAAAATTTATATAA [XGTACX_site7718]	9.08
ATTTAACTAAAGAAGGCACACGTGTTTAAAAAAAAA [CACACA_site5241]	9.68
CATTTATATATATACACACACACAAAAAAAAAAAAA [CACACA_site2645]	10.7
GACGTTATGATACACATACACACAGGGATAAAAAAT [CACACA_site2882]	9.89
AATATTATATTTTATTGTACTAATAAAAATATATGC [XGTACX_site5435]	9.43
TAATGTATATGTAAATGTACATGTATATTATTTAAA [XGTACX_site1840]	9.57
ATCAAAGATAAATTTACACACATATATATATATATA [CACACA_site2969]	9.81
AAGATATTTGTATAATGTACAAAACTATATAAAACT [XGTACX_site1433]	9.7
TCTTCCCAAATAAAGTGTACATAAATACGAATAATA [XGTACX_site4363]	9.44
AAAATTAAAATATATACACACATATATATATTAAAT [CACACA_site4419]	9.82
AAATATACAAAATATACACACATATTTATTTATGAT [CACACA_site2051]	9.84
TATTTTCATTTGCGCGCACACAATAATAATTTTTGG [CACACA_site3525]	10.1

Sequence	gcPBM binding intensity (ln)
AACAATTATTTATCTACACACTTTTATGTTATTTAC [CACACA_site9]	9.91
TATAAATTAATGACATGTACATAAAAGTATAGATGT [XGTACX_site6534]	9.95
TAAAAAATATAAATGACACACACTTAAAAACAAAGA [CACACA_site671]	10.5
AATACAATATAGTGAAAAATAATTAAATACAATAAG [XGTACX_negctrl_site161]	9.91
CGTAAACAATTATGATGTACATAAAATATATATATA [XGTACX_site2705]	9.9
TCTATTCATTTTGAAGGTACACATTTCTTTATAATA [XGTACX_site6218]	9.57
GTATTAGATAAATACACACACAAGCATATATTTTTA [CACACA_site3431]	10.3
AATATATCATTATATAAACACACAATATGTTTTTTA [CACACA_site9260]	9.64
AAAAATATATATATATATATATATATAAGGAATATA [XGTACX_negctrl_site450]	9.91
AATAAATATATAAATACACACAAACATACATATATA [CACACA_site9340]	10.2
TTAAATTTTTTTTTGTGTACGAAAAACAGAAAAAAT [XGTACX_site8625]	9.22
TATGTGTATGGGAATGCATGTAAATATGTACATATA [TGCATGCA_site737]	9.96
ATATATATATACATATGTACATATAAAATAATTTTG [XGTACX_site3731]	9.7
TTGTTCCACAAAAATTTAGTCAAAAAAAAATAAAAA [TGCATGCA_negctrl_site546]	9.37
ACAAAAAAAAAAATAACACACATGGGGGTGTATAAA [CACACA_site3797]	9.87
AATGAATAACAATACTATATGATTTTTAATACATTA [XGTACX_negctrl_site42]	9.56
GTATATTATTTACGTTTGCACTTCATTTTATAGTAA	9.84
TATTAATTGTGGCACCTTGTATGTTTACAATGACAT [CACACA_negctrl_site1383]	9.81
AATGGATGAATGAATGTATGAATGAATGTATGAATG [CACACA_negctrl_site91]	9.6
TTCTTCAAAAAAAATTGTACACATCTCTCAAATGTT [XGTACX_site2952]	9.6
TGTATGTATTAATGCGCACACAAAAAATAACAATAT [CACACA_site1848]	10.5
AAAAAAAAAAAAAAGAGTACACAGACGTTCAAAGGT [XGTACX_site7566]	10.1
